From patent US20240374746A1, “SIRP-ALPHA ANTIBODIES AND CONJUGATES” (Tallac Therapeutics, Inc., priority 2021, published 2024) come the findings set out here.

One series relates to CD14+ monocytes. The series can be described thus: Monocyte activation (CD40) in PBMCs co-cultured with DLD-1 tumor cell lines. In kind it is cell-based, human. Particulars: co-culture with DLD-1 overexpressing SIRP-α and with parental DLD-1; 300 nM to 0.41 nM, 48 hours; compared to other conjugates and unconjugated antibodies. From the text:
Experiments using anti-SIRP-α antibody-CpG oligonucleotide conjugate used the 7-7 CpG oligo (SEQ ID NO:35) conjugated to anti-SIRP-α antibody comprising: (a) the heavy chain sequence of SEQ ID NO:68 and the light chain sequence of SEQ ID NO:75 (for anti-hIgG1), (b) the heavy chain sequence of SEQ ID NO:66 and the light chain sequence of SEQ ID NO: 75 (for anti-hIgG4), or (c) the heavy chain sequence of SEQ ID NO:67 and the light chain sequence of SEQ ID NO:75 (for anti-hIgG1 AAA). Trima residuals were received from Vitalant and diluted 1:2 with Phosphate Buffered Saline (PBS, Gibco). Diluted blood was split into two tubes and underplayed with 15 mL Ficoll-Paque (GE Healthcare). Tubes were centrifuged for 30 minutes at 400×g. PBMCs were collected from the interface, resuspended and washed in FACS buffer (PBS with 0.5% Bovine Serum Albumin (Gibco)). After one wash, PBMCs were resuspended in Complete RPMI (RPMI+10% FBS). PBMCs were immediately plated onto a 96-well format (0.5e6/well) in Complete RPMI. Tumor cells (0.025E6/well) from DLD-1 parental CFSE labeled, or DLD-1 transduced to overexpress SIRP-α+ and GFP were added to PBMC at 20:1 (effector to target). […] Cells were analyzed on Attune NxT Flow Cytometer (Thermo Fisher), with subsequent data analysis by Flowjo 10.7 (Treestar). […] CD14^+ monocyte activation levels of activation marker were assessed by median fluorescent intensity.

Another series deals with dendritic cells. The series can be described thus: Dendritic cell activation (CD40) in human PBMCs. In kind it is cell-based. Particulars: 24 hours. As to the method:
Trima residuals were received from Vitalant and diluted 1:3 with Phosphate Buffered Saline (PBS, Gibco). Diluted blood was underplayed with 15 mL Ficoll-Paque (GE Healthcare). Tubes were centrifuged for 30 minutes at 400×g with break off. PBMCs were collected from the interface, resuspended and washed in FACS buffer (PBS with 0.5% Bovine Serum Albumin (Gibco)). After one wash, PBMCs were resuspended in Complete RPMI (RPMI, 10% FBS, 1× Pen/Strep, 1× Glutamax). PBMCs were immediately plated onto a 96-well format (1e6/well) in Complete RPMI. Three-fold serial dilutions were added to the cells from 300 nM to 0.4 nM for anti-SIRP-α antibody (heavy chain comprising the sequence of SEQ ID NO:66 and light chain comprising the sequence of SEQ ID NO:75) and anti-SIRP-α conjugate (heavy chain comprising the sequence of SEQ ID NO:66 and a light chain comprising the sequence of SEQ ID NO:75, conjugated to CpG oligo 7-7 (SEQ ID NO:35)). Free CpG 7-7 (SEQ ID NO:35) was titrated from 3 μM to 4.12 nM. Cells were incubated at 37° C. under 5% CO2 for 24 hours. […] Cells were analyzed on Attune NxT Flow Cytometer (Thermo Fisher), with subsequent data analysis by Flowjo 10.7 (Treestar). […] Levels of activation marker were assessed by median fluorescent intensity.

Series [1] relates to THP-1-Dual hTLR9 cell line, interferon regulatory factor (IRF) pathway. The series can be described thus: THP-1-Dual hTLR9 reporter assay, IRF pathway (secreted Lucia luciferase). Particulars: 200 nM-1.56 nM, 24 hours. In kind it is cell-based, human. As to the method: THP-1-Dual hTLR9 cell line (thpd-nfis, Invivogen) was derived from human THP-1 monocytes engineered to overexpress the human TLR9 (hTLR9) gene and featuring two reporter genes allowing for simultaneous assessment of the NF-kB pathway by monitoring the activity of an inducible secreted embryonic alkaline phosphatase (SEAP), and the interferon regulatory factor (IRF) pathway by monitoring the activity of an inducible secreted Lucia luciferase. Briefly, 250,000 cells in 100 uL of growth media (RPMI 1640 (Gibco), 2 mM L-glutamine (Gibco), 25 mM HEPES (Gibco), 10% FBS (Gibco), 100 U/mL penicillin (Gibco), 100 ug/mL streptomycin (Gibco), 100 ug/mL Normacin (Invivogen) were plated in 96-well flat-bottom plates (Nunc). An 8 step 2-fold serial dilution of anti-SIRP-α antibody or anti-SIRP-α antibody conjugate was added to cells in 50 μL for a final concentration range of 200 nM-1.56 nM. 10 μg/mL of a F(ab′)2 fragment goat anti-human, IgG Fcγ fragment specific (Jackson Immuno Research) was added in 50 μL of growth media as a cross-linking agent. Cells were incubated at 37 C for 24 hours. NF-kB and IRF induction from supernatant was detected according to manufacturer's protocol. EC50 values were derived using three-parameter […] regression curve fir in Prism 9 (GraphPad), and data were presented as fold-over media control. […]

B1: hIgG4 conjugate: anti-SIRP-α antibody, heavy chain SEQ ID NO:66 and light chain SEQ ID NO:75, conjugated to 7-7 CpG oligo (SEQ ID NO:35); Examples 13, 15 (conjugate)
heavy: EVQLVESGGGVVQPGGSLRLSCAASGFTFSSNAMSWVRQAPGKGLEWVAGISAGGSDTYYPASVKGRFTISRDNSKNTLYLQMNSLRAEDTAVYYCARETWNHLFDYWGQGTLVTVSSASTKGPSVFPLAPCSRSTSESTAALGCLVKDYFPEPVTVSWNSGALTSGVHTFPAVLQSSGLYSLSSVVTVPSSSLGTKTYTCNVDHKPSNTKVDKRV[here human IgG4 Fc with S228P (EU numbers) without letters]RPQGFGPP
light: SYELTQPPSVSVSPGQTARITCSGGSYSSYYYAWYQQKPGQAPVTLIYSDDKRPSNIPERFSGSSSGTTVTLTISGVQAEDEADYYCGGYDQSSYTNPFGGGTQLTVLGQPKANPTVTLFPPSSEELQANKATLVCLISDFYPGAVTVAWKADGSPVKAGVETTKPSKQSSDKYAASSYLSLTPEQWKSHRSYSCQVTHEGSTVEKTVAPTECS
DNA: TCGTCGTGTCGTTT
modifications: antibody conjugated to CpG oligonucleotide; modified_base 1 OTHER; 5-Bromo-2'-deoxyuridine; modified_base 13..14 OTHER; 2'-O-Methyl-Thymidine; modified_base 1..4 OTHER; phosphorothioate linkages; misc_feature 4^5 phosphotriester linker-PEG24-NH2; modified_base 5..9 OTHER; modified_base 9^10 OTHER; phosphorodithioate linkage; modified_base 10..14 OTHER; misc_feature 14 3' spacer C3
Turning to B1, in the series with CD14+ monocytes, the “induction of CD40 in monocytes” value was “strongest induction of CD40”. The “surface marker expression (CD40) on dendritic cells” value in the series on dendritic cells is “significantly increased activation”.

B2: Unconjugated anti-SIRP-α antibody: anti-SIRP-α antibody with heavy chain SEQ ID NO:66 and light chain SEQ ID NO:73 (antibody)
heavy: EVQLVESGGGVVQPGGSLRLSCAASGFTFSSNAMSWVRQAPGKGLEWVAGISAGGSDTYYPASVKGRFTISRDNSKNTLYLQMNSLRAEDTAVYYCARETWNHLFDYWGQGTLVTVSSASTKGPSVFPLAPCSRSTSESTAALGCLVKDYFPEPVTVSWNSGALTSGVHTFPAVLQSSGLYSLSSVVTVPSSSLGTKTYTCNVDHKPSNTKVDKRV[here human IgG4 Fc with S228P (EU numbers) without letters]RPQGFGPP
light: SYELTQPPSVSVSPGQTARITCSGGSYSSYYYAWYQQKPGQAPVTLIYSDDKRPSNIPERFSGSSSGTTVTLTISGVQAEDEADYYCGGYDQSSYTNPFGGGTKLTVLGQPKANPTVTLFPPSSEELQANKATLVCLISDFYPGAVTVAWKADGSPVKAGVETTKPSKQSNNKYAASSYLSLTPEQWKSHRSYSCQVTHEGSTVEKTVAPTECS
In the case of B2, in series [1], the IRF induction result is recorded as “did not elicit a response”.
